This is one part of the list.
B1: chr1:109062750:109062855:-|3pUTR|ENSG00000197780|unk|total|mutant (ssRNA)
RNA: GGGAGUUCUACAGUCCGACGAUCGCUUUCAGCCGCAGGAAUGGCAUUGUUUAAAAAGCUGAUGGCAGGGUAAGCAUUUGGGUCCGUGUUUUAUUAACAUAUUUGUAAGUACUUGUUCAUUGUGGAAAUGUGUCCUUGACUAAACAACAGAGGAUUGAGCAUCA
B2: chr7:98206920:98207021:+|3pUTR|ENSG00000164715|unk|FALSE|unique (ssRNA)
RNA: GGGAGUUCUACAGUCCGACGAUCGUUCUGCAUUAAGCCCCAGGUUCUCUUCUGGCUUUGAAAGGGCCCGAGUGCUCCCAGUGUAGCUUCGUCACAUCGUCACGAGCCCCUGUGGUCAUGGGCGACCUCACACCUCCCUCCCUGCAACAGAGGAUUGAGCAUCA
B3: chr10:15076986:15077088:-|3pUTR|ENSG00000176244|unk|FALSE|unique (ssRNA)
RNA: GGGAGUUCUACAGUCCGACGAUCUUUUCCUUUAAGAAGAUACCCAGUAGUGGGAUUGCUGGGUAGAAUGGUAGUUCUAUUUUUAGUUCCAUGAGAAAUUUCCGUGCUGUUUUUCAUAGAGGUUGUACUAAUUUACAUUCCCACCAACAGAGGAUUGAGCAUCA
B4: ENSG00000089057:stop:overlap|stop_codon|ENSG00000089057|stop_codon|NA|stop_codon (ssRNA)
RNA: GGGAGUUCUACAGUCCGACGAUCAAGGCCUCAGGAAGAGCGACAACAGCCGGAGUUCAGAUGAAGACUCCCAGGCCACGGGAUAGCCUUUGCUGUGCCCUGUGGCCUGGCCGCAGUGAGGCAUGUAUCUGUAGUUCCUUGCUGCAACAGAGGAUUGAGCAUCA
B5: chr1:225419324:225419425:-|CDS|ENSG00000143815|msi1|total|mutant (ssRNA)
RNA: GGGAGUUCUACAGUCCGACGAUCUUACACCGCAACACAGUACCGCCUUCGUCCAAGAAGAGAAGAAGUCAAAUUAAAAGAAACCGAUUCUAAGGAAGAAAAAUACGUUGCAAAAGAACUGGCAGUGAGAACCUUUGAAGUGACCAACAGAGGAUUGAGCAUCA
B6: chr1:161190761:161190881:-|3pUTR|ENSG00000158859|msi1|total|mutant (ssRNA)
RNA: GGGAGUUCUACAGUCCGACGAUCUGCGGGUCACAGGAGGGAGGGGGAAGGCAGGGAGGGCCUGGGCCCCAGUUGUAUUUAUUCCGUAUUUAUUCACUUUUAUUCCGCACCAGGGAAGGGGACAAGGACCCGGGUCCUGGGGAACAACAGAGGAUUGAGCAUCA
B7: chr15:44562695:44563301:-|three_prime_utr|ENSG00000104133|control|control|control (ssRNA)
RNA: GGGAGUUCUACAGUCCGACGAUCUGAAAUUGUAAAUGUGCUUCUGAAGGACCCUCAGACAGGUUGCUGUCUAAAGGACAUGCUAGCAGGUUAGAUGAUUUCAUAGGUGUCUGUUUUCUUGUACUGUUAGCAGAUUCUGACAGACAACAGAGGAUUGAGCAUCA
B8: chr7:47276374:47276475:-|3pUTR|ENSG00000136205|msi1|total|mutant (ssRNA)
RNA: GGGAGUUCUACAGUCCGACGAUCCUGGGGUUUGGGAAUGUGCUUUGUGAACUCUGCUUUAAAGUGAGGGGCCGAGGAAAACUCCGAAACAGGCAGAGUUGGAAGCAGCCAAAUCACAGUGGGUGUUGUGUGUGUGUGCGUGUGCAACAGAGGAUUGAGCAUCA
B9: chr6:169419968:169421160:-|three_prime_utr|ENSG00000285733|control|control|control (ssRNA)
RNA: GGGAGUUCUACAGUCCGACGAUCUGGCAGGAGGGGAGGCGUUUAUGAGAGUCCCCGGUGGGCACAUAUUAAAAAAAGCUAAGUAGAAAAAUCACUGAGAACUCAUAACUGGUCAAUGAGUUCAGGUAGACAAUGAGGGAGGGUCAACAGAGGAUUGAGCAUCA
B10: chrX:155260805:155261229:-|CDS|ENSG00000155961|control|control|control (ssRNA)
RNA: GGGAGUUCUACAGUCCGACGAUCUGGUCUUCUCUUAUUUGACAUUACCAACCGCAGGUCCUUCCAGAAUGUCCAUGAGUGGUUAGAAGAGACCAAAGUACACGUUCAGCCCUACCAAAUUGUAUUUGUUCUGGUGGGUCACAACAACAGAGGAUUGAGCAUCA
B11: chr11:46383557:46383658:+|3pUTR|ENSG00000110492|msi1_unk|total|mutant (ssRNA)
RNA: GGGAGUUCUACAGUCCGACGAUCCCACGCCCUCCCUCUCCCAGGCCCGAGAUGUGACCCACCAGUGCCUUCUGUCUGCUCGUCCGCUUUAAUCAAUCAUGCCCUGCCUUGUCCCUCUCACUCCCCAGCCCCACCCCUAAGUGCCAACAGAGGAUUGAGCAUCA
B12: chr17:4897770:4898853:-|three_prime_utr|ENSG00000108556|control|control|control (ssRNA)
RNA: GGGAGUUCUACAGUCCGACGAUCUCCUCGGGGCCUACUUCAACCGAGUGCCUGAUCUCCCCUACGCGCCGUGUAUCCAGCCUUAGCUCGCACCGACUUCAAUUUCCCACCCAUCUCCAGUAGGAAAUUGAUUUUGAAAAAGUACAACAGAGGAUUGAGCAUCA
B13: chr22:29555535:29555644:-|3pUTR|ENSG00000184117|unk|total|mutant (ssRNA)
RNA: GGGAGUUCUACAGUCCGACGAUCUUCCUCAUCUCAAGGCCACCAGUCCCCAGUUAUCACCCUUGGAAAUCCUCUGUUCCGCUCCGUUGCACAAAAGGCCGUAUGUCCAGUGGCCCGAGGUGGGGUGGGAAGAGAGGAGGCCAGCAACAGAGGAUUGAGCAUCA
B14: chr22:40825413:40825514:-|3pUTR|ENSG00000100380|msi1|total|mutant (ssRNA)
RNA: GGGAGUUCUACAGUCCGACGAUCGGUAAUACCCACAACAACUGCCGUUUCUUACUUGGCCAAGAGAAUGCUUAUUUAAGUGUCCGACUUCCAUUCUGGCAAAAUCUUGCCUUAUCAGAAGACAUUGGAAAGAGGGAUUCCCUUCAACAGAGGAUUGAGCAUCA
B15: chr3:27376575:27376676:-|3pUTR|ENSG00000033867|msi1|total|mutant (ssRNA)
RNA: GGGAGUUCUACAGUCCGACGAUCCUAUAUAUAAGAAUAUUGUAUGUCAUGCUGUUUAUGUGUGACUACCGGGUUUUUAAAAGCCGUGUCUGGAGUUUGUAAUGAGCACCGUGGAGACUAUGUAUUUAAUGAAAUGCUCUCUUUCAACAGAGGAUUGAGCAUCA
B16: chr8:143915815:143915916:-|3pUTR|ENSG00000178209|msi1|FALSE|unique (ssRNA)
RNA: GGGAGUUCUACAGUCCGACGAUCGCCAGGUGCCUUGGAGGGUCCCAAGCUGGGCCCCAGCCCACCCUCCUGUCUUCCCAGGGUAGCCCGCCUGCCAGUCCUAGCUGCACAGGGCAGCUGGGCCCAACCCUGUCUGUAGAGGGCCAACAGAGGAUUGAGCAUCA
B17: chr10:7163078:7163179:-|3pUTR|ENSG00000198879|unk|total|mutant (ssRNA)
RNA: GGGAGUUCUACAGUCCGACGAUCAGAGGUGCCUUUCCGGAAUACGGGGAGUGAAGGAAGGCCGGCAGGCAUCUCCAUGCAACCCGAUGGUUUGUUUGUUUGUUUGUUUGUUUGUUGUUCAUUUUGUUGUGUUUUUUGAGACAGCAACAGAGGAUUGAGCAUCA
B18: chr18:67512643:67512744:-|CDS|ENSG00000171451|unk|total|mutant (ssRNA)
RNA: GGGAGUUCUACAGUCCGACGAUCGCCAUGAUGGAUGUGUGGGAUGCACAUUACAAAAUGUUUUGGUUUGAUCAUCAUGGCAACCGUCCCAUGGCCAGUAUACAGGAAGCAGAGCAAGCUGCUGAAUUUAAAAAACGAUGGACUCAACAGAGGAUUGAGCAUCA
B19: chr15:41900134:41900198:-|3pUTR|ENSG00000103966|msi1_unk|FALSE|overlapping (ssRNA)
RNA: GGGAGUUCUACAGUCCGACGAUCAGGGCACCUGGAGGCAGCAAAGAUUAUCUUAUUUAUUUUAUUUUGUUUUCUGCUAUAUUUAGAGUGGCAAAAAAAUAGAGCAGAGGGUUUCUGCUGUCUCCAGACUGUCUACCAAAGAGACAACAGAGGAUUGAGCAUCA
B20: chr10:89738052:89738153:+|CDS|ENSG00000138182|unk|total|mutant (ssRNA)
RNA: GGGAGUUCUACAGUCCGACGAUCCUGGAACAACAAAUUGAAAAAUUGCAGGCAGAAGUAAAAGGCUAUAAGGAUGAAAACAACCGACUAAAGGAGAAGGAGCAUAAAAACCAAGAUGACCUACUAAAAGAAAAAGAAACUCUUCAACAGAGGAUUGAGCAUCA
B21: ENSG00000198589:be:win_6751|CDS|ENSG00000198589|bound_else_gene|NA|bound_elsewhere_windowed (ssRNA)
RNA: GGGAGUUCUACAGUCCGACGAUCUUGCCCACCAACUUCAGAGAUUUGUCCAAGCCAAUAGGAGCUCUGAACCCAAAAAGAGCAGCAUUCUUCGCUGAGCGUUAUGAAUCAUGGGAAGAUGAUCAAGUUCCAAAGUUUCACUAUCAACAGAGGAUUGAGCAUCA
B22: chr1:77728514:77728621:-|CDS|ENSG00000077254|unk|FALSE|unique (ssRNA)
RNA: GGGAGUUCUACAGUCCGACGAUCAGAUCCGCAAACCAUAACCACUGAGGAGACAAUGGAAGAAGACAAGAGCCAGUCGGAUGUAGAUUUUCAGUCUUGUGAAUCUUGUAGCAACAGUGAUAGAGCAGAAAAUGAAAAUGGCUCCAACAGAGGAUUGAGCAUCA

Each binder was assayed against MSI1 full-length (mouse, UniProt Q61474 1-362) (assay: nsRBNS (natural sequence RNA bind-n-seq); RBNS binding buffer (assumed for nsRBNS): 25 mM Tris pH 7.5, 150 mM KCl, 3 mM MgCl2, 0.01% Triton X-100, 500 ug/ml BSA, 20 U/ml SUPERase-In, 4 C; UNK is unkempt and MSI1 is Musashi-1; names of the RNAs are library labels; protein concentration not given here; high values mean tight binding).
Chain of UniProt Q61474 (Q61474 whole entry): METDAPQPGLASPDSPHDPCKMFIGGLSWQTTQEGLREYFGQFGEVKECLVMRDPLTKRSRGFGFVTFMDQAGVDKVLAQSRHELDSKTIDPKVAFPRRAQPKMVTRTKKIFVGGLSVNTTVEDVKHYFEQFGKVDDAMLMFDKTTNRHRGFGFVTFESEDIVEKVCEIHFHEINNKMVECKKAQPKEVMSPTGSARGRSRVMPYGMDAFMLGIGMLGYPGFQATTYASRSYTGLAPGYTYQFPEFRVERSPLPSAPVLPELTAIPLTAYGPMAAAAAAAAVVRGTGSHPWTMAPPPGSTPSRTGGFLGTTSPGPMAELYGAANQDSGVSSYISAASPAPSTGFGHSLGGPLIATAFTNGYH
Binder B1 has a binding signal of 0.644 enrichment R.
In the case of B2, the binding signal is reported as 0.858 enrichment R.
In the case of B3, the binding signal is reported as 6.19 enrichment R.
B4 gave a binding signal of 4.03 enrichment R.
B5 showed a binding signal of 0.304 enrichment R.
B6 gave a binding signal of 1.51 enrichment R.
Work on B7 yielded a binding signal of 0.442 enrichment R.
Work on B8 yielded a binding signal of 0.605 enrichment R.
In the case of B9, the binding signal is reported as 2.23 enrichment R.
Binder B10 has a binding signal of 0.483 enrichment R.
B11 was tested, and the binding signal was 1.03 enrichment R.
Binder B12 has a binding signal of 0.499 enrichment R.
With B13 the binding signal was 0.632 enrichment R.
B14 showed a binding signal of 0.281 enrichment R.
For B15, the binding signal was 0.634 enrichment R.
In the case of B16, the binding signal is reported as 0.531 enrichment R.
B17 gave a binding signal of 1.09 enrichment R.
For B18, the binding signal was 0.334 enrichment R.
Work on B19 yielded a binding signal of 0.421 enrichment R.
With B20 the binding signal was 0.507 enrichment R.
B21 showed a binding signal of 0.357 enrichment R.
For B22, the binding signal was 0.731 enrichment R.

— paper PMC12136788
